# The whole screen tested about 52,000 compounds, of which about 4,300 (8.3%) were called active. No stated cut-off is given here; in the data, active means survival mostly below about 52% (no sharp cut-off); inactive means mostly above about 56%. The list shows a part of the results.
# Tested on: DeltatarO mutant
# Test: growth inhibition of S. aureus wild type versus tarO mutant, primary screen, teichoic acid synthesis inhibitors, RN4220, OD600 (AID 463173)
# Settings: OD600, 18 h, active compounds read low, screened at 18.75 µg/mL (by protocol)
row,Compound,survival
1,CCOC(=O)c1cccc(NC(=O)CCCn2c(C)c3cnn(-c4ccccc4)c(=O)c3c2C)c1,inactive: 58%
2,Cc1cccc(-n2ncc(C(=O)N3CCC(C)CC3)c2C2CCN(C(=O)OC(C)(C)C)CC2)c1,inactive: 89%
3,Cc1ccc(CNC(=O)CCC(=O)N2CC(C)Sc3ccccc32)cc1 (centres undefined),active: 45%
4,CCCCn1c(CNC(=O)c2ccc(OC)cc2)nnc1SCC(=O)Nc1ccccc1,inactive: 76%
5,Cc1ccc(NC(=O)c2cc3c(=O)[nH]c4ccccc4c3n2C)cc1F,inactive: 83%
6,O=S(=O)(Nc1ccc(-c2ccc(N3CCCC3)nn2)cc1)c1ccc(Br)cc1,inactive: 94%
7,COc1ccc(C(=O)NCC(c2cccs2)S(=O)(=O)c2ccc(C)cc2)cc1 (centres undefined),inactive: 100%
8,CCc1ccccc1Nc1nn2c(=O)c3ccc(C(=O)Nc4cc(C)cc(C)c4)cc3nc2s1,inactive: 77%
9,Cc1cc(N2CCC(C)CC2)nc2ccc(NC(=O)CCC(=O)N3CCN(c4cccc(C(F)(F)F)c4)CC3)cc12,active: 31%
10,CCOC(=O)c1cnc(-c2ccccc2)nc1Nc1ccc(C)cc1,inactive: 90%
11,CCOC(=O)c1sc2ncn(CC(=O)Nc3ccc(C)cc3C)c(=O)c2c1C,inactive: 69%
12,Cc1cc(C)c(/C=C/c2onc(C)c2S(=O)(=O)N2CCC(C(=O)N3CCN(c4ccccc4)CC3)CC2)c(C)c1,inactive: 88%
13,CC1CCc2nc3ncn(CC(=O)Nc4cccc(C#N)c4)c(=O)c3cc2C1 (centres undefined),inactive: 94%
14,COc1cccc(NC(=O)c2cn(C3CCCCC3)c(=O)c3c2c2ccccc2n3C)c1,inactive: 75%
15,CCCCNC(=O)C(CC)Sc1nnc(-c2ccc(OC)c(OC)c2)c(-c2ccc(OC)c(OC)c2)n1 (centres undefined),inactive: 93%
16,COc1ccccc1-c1nn(CCC(=O)Nc2cccc(C(C)=O)c2)c2nc(C)cc(C)c12,inactive: 69%
17,COc1ccc(S(=O)(=O)N(CC(=O)N2CCC(C)CC2)c2ccc(C)cc2)cc1,inactive: 67%
18,Cc1ccc(NCc2nnc3n2CCCCC3)cc1Cl,inactive: 99%
19,CCOCCCNC(=O)CCc1nnc2ccc(N3CCN(c4cccc(OC)c4)CC3)nn12,inactive: 103%
20,CCOC(=O)c1ccccc1NC(=O)CCc1c(C)nc2ncnn2c1C,inactive: 87%
21,Cc1ccc2c(=O)cc(C(=O)Nc3nnc(C)s3)oc2c1,inactive: 76%
22,CCn1nc(-c2ccccc2)c(-c2ccccc2)c(C(=O)OCCOC)c1=O,inactive: 54%
23,CN1C(C(=O)Nc2ccc(F)cc2F)=CC(c2cccs2)=NS1(=O)=O,inactive: 99%

row,Compound,survival
1,O=C(N/N=C/c1cccc2c1OCCO2)c1ccc(CN2CCOCC2)cc1,inactive: 82%
2,Cc1oc(-c2ccccc2)nc1CNC(=O)Nc1ccccc1,inactive: 74%
3,CCOC(=O)C1=C(CN2CCC(C(=O)OCC)CC2)NC(=O)NC1c1ccc(Cl)cc1 (centres undefined),inactive: 111%
4,Cc1nn(C)c2c1c(C(F)(F)F)cc(=O)n2CC(=O)NCc1ccccc1Cl,inactive: 80%
5,Cc1cc(F)ccc1NC(=O)c1sc2nc(-c3cccs3)ccc2c1N,active: 45%
6,O=C(NCc1ccccc1Cl)C1CCCN1C(=O)NCc1ccccc1 (centres undefined),inactive: 81%
7,CCOc1ccccc1NC(=O)C(C)Sc1nc2c(c(=O)[nH]1)CCCC2 (centres undefined),inactive: 68%
8,CC(C)OCCCN1C(=O)c2[nH]nc(-c3ccccc3O)c2C1c1ccc(OCc2ccccc2)cc1 (centres undefined),active: 28%
9,CCc1cccc(CC)c1NC1=NS(=O)(=O)c2ccccc21,inactive: 70%
10,Cc1ccc(NS(=O)(=O)c2ccc3c(c2)NC(=O)CCS3)c(Br)c1,active: -1%
11,CC(=O)Nc1ccc(C(=O)CSc2ncn(-c3ccccc3)n2)cc1,inactive: 95%
12,COc1ccc(OCc2nnc(-c3ccccc3)o2)cc1,inactive: 106%
13,CCOc1ccc(S(=O)(=O)N2CCN(c3ccccc3)CC2)cc1C(N)=O,inactive: 185%
14,CC1CCCC(C)N1C(=O)CSc1ccc(-c2ccc3c(c2)OCCO3)nn1 (centres undefined),inactive: 91%
15,Cc1ccc(Nc2c(-c3ccccc3O)nc3ccc(Br)cn23)cc1,inactive: 92%
16,CC(C(=O)NCc1ccco1)N1CCN(C)CC1 (centres undefined),inactive: 95%
17,Cc1cccc(NC(=O)CSc2nc3c([nH]c4ccccc43)c(=O)n2C)c1,inactive: 89%
18,COc1ccc2c(Sc3ccc(Cl)cc3)c(C(=O)NCCCN3CCCCC3)[nH]c2c1,active: -1%
19,CCOC(=O)c1sc(NC(=O)COc2ccccc2Cl)c(C(=O)OCC)c1C,inactive: 96%
20,O=C(Nc1ccc(O)c(-c2nc3ccccc3o2)c1)c1ccco1,inactive: 71%
21,Cc1cc(=O)n(CC(=O)O)c2ccccc12,inactive: 101%
22,Cc1ccccc1NC(=O)CSc1nc2c(oc3ccccc32)c(=O)n1-c1ccccc1F,inactive: 75%
23,CC1CCN(C(=O)c2cc(-c3ccc(Cl)cc3)on2)CC1,inactive: 66%

row,Compound,survival
1,Oc1cccc(C(=S)N2CCCCC2)c1,inactive: 80%
2,O=C(NCCc1ccccc1)c1c[nH]c2ccc(S(=O)(=O)Nc3ccccc3F)cc2c1=O,inactive: 73%
3,COc1cc(C(=O)Nc2ccc(OCc3cc(=O)n4cc(C)sc4n3)cc2)cc(OC)c1OC,inactive: 117%
4,O=C(CSc1ccc2ccccc2n1)Nc1nsc(-c2ccc(Cl)cc2)n1,inactive: 57%
5,CC(=O)Nc1ccc(-c2nn[nH]n2)cc1,inactive: 95%
6,COc1ccc(-n2ccn(Cc3ccc(C)cc3)c(=O)c2=O)cc1OC,inactive: 73%
7,O=C(c1ccc2c(c1)N(Cc1ccc(F)cc1)C(=O)c1ccccc1S2(=O)=O)N1CCC(Cc2ccccc2)CC1,inactive: 72%
8,CC(=O)N1c2nc(-c3ccco3)nn2C2(CCCCC2)[C@@H]2CCCC[C@@H]21,inactive: 81%
9,COc1ccc(NC(=O)CN(C)S(=O)(=O)c2ccc3[nH]c4c(c3c2)CCCC4)cc1Cl,inactive: 88%
10,CCOc1ccccc1NC(=O)CN1CCC(NC(=O)Nc2ccccc2)CC1,inactive: 102%
11,Cc1cccc(-n2c(=O)c3c(c4cc(C)ccc4n3C)n(Cc3ccccc3F)c2=O)c1,inactive: 107%
12,COc1ccc(Cn2c(SCc3ccc(C(=O)NCc4ccccc4F)cc3)nc3cccnc32)cc1,inactive: 74%
13,CCOc1ccc(S(=O)(=O)N(CC(=O)N2CCCCC2)c2ccccc2)cc1,inactive: 60%
14,CC1=C(C(=O)OCC2CCCCC2)C(c2c(F)cccc2Cl)CC(=O)N1 (centres undefined),inactive: 77%
15,COc1ccc(CCNC(=O)CCc2c(C)nc3nc(C)nn3c2C)cc1OC,inactive: 92%
16,COc1ccc(C)cc1NC(=O)CCS(=O)(=O)c1ccc2c(c1)CC(=O)N2C,inactive: 61%
17,CCc1ccc(S(=O)(=O)c2nnn3c2nc(NC2CCCC2)c2sccc23)cc1,inactive: 62%
18,COc1cc(OC)c(NC(=O)Nc2ccccc2OCc2cc(=O)n3cc(C)ccc3n2)cc1Cl,inactive: 103%
19,COCCNC(=O)c1cc(Sc2ccc(F)cc2F)nc2ccccc12,inactive: 92%
20,COc1cccc(Cn2c(=O)n(-c3ccc(Br)cc3F)c(=O)c3sc4ccccc4c32)c1,inactive: 96%
21,CCOc1cccc2cc(-c3nc4sc5c(c4c(=O)[nH]3)CCC(C)C5)c(=O)oc12 (centres undefined),inactive: 103%
22,CCCCNC(=O)CSc1nc2ccccc2nc1Cc1ccc(Cl)cc1,inactive: 124%
23,COc1ccc(NC(=O)CCNS(=O)(=O)c2cccc3nsnc23)cc1OC,inactive: 65%

row,Compound,survival
1,COc1ccc(N(Cc2ccccc2)C(=O)c2nc(SC)ncc2Cl)cc1,inactive: 99%
2,Cc1ccc(Cl)cc1N1C(=O)N(Cc2ccc(C#N)cc2)c2ccccc2S1(=O)=O,inactive: 79%
3,COc1ccc(C2=Nc3ccc(C)cc3NC(c3ccc(Cl)cc3)=N2)cc1,inactive: 60%
4,COc1ccc(Cl)cc1NC(=O)CCCn1c(C)c2cnn(-c3ccccc3)c(=O)c2c1C,inactive: 67%
5,COc1ccc(CNC(=O)c2cccc(NC(=O)N3CCSc4ncccc43)c2)cc1,inactive: 89%
6,COc1ccc(-c2noc(N3CCC(C(=O)Nc4ccc(C)c(F)c4)CC3)n2)cc1OC,inactive: 57%
7,O=C(c1cnn2c(C(F)F)cc(-c3ccccc3)nc12)N1CCc2ccccc21,inactive: 78%
8,Cc1ccc(OCCn2nnc3sc4c(c3c2=O)CCC(C(C)(C)C)C4)cc1 (centres undefined),inactive: 50%
9,CCn1c(CN2CCC(C)CC2)nc2cc(NC(=O)COc3ccc([N+](=O)[O-])cc3)ccc21,inactive: 82%
10,CC(C)c1ccc(NC(=O)c2cccn2-c2nnc(N3CCCCC3)s2)cc1,inactive: 74%
11,CCCOc1cccc(C(=O)N(Cc2cc(OC)c(OC)c(OC)c2)C2CCS(=O)(=O)C2)c1 (centres undefined),active: 43%
12,CCN(CC)CCCNC(=O)Cn1c(-c2cccs2)cc2cc(Cl)ccc21,inactive: 81%
13,O=C(CCCCn1c(=O)[nH]c2ccsc2c1=O)N1CCN(c2cccc(Cl)c2)CC1,inactive: 68%
14,Cc1ccc(CSc2nc3ccc(NC(=O)COc4ccccc4F)cc3s2)cc1,inactive: 83%
15,CCOC(=O)c1c(C)oc2c(Cl)cc(NS(=O)(=O)c3ccc(Cl)c(C)c3)cc12,inactive: 104%
16,CCOC(=O)c1c(C)[nH]c(C)c1S(=O)(=O)N(C)CC(=O)N1CCN(c2ccccc2OC)CC1,inactive: 119%
17,CCOC(=O)N1CCN(C(=O)CN(c2ccc(C)cc2C)S(=O)(=O)c2ccccc2)CC1,inactive: 66%
18,O=C(CN1C(=O)C2(SCC(=O)N2c2cccc(Cl)c2)c2ccccc21)NC1CCCCC1 (centres undefined),inactive: 86%
19,CCN1CCN(C(=O)c2ccc3c(c2)N(Cc2cc(C)ccc2C)C(=O)c2ccccc2S3=O)CC1 (centres undefined),inactive: 117%
20,COC(=O)c1cc(NC(=O)CN(c2ccccc2)S(=O)(=O)N(C)C)ccc1Cl,inactive: 83%
